# In US20210040533A1, “METHOD FOR IDENTIFYING TARGET GENE OF TEST SUBSTANCE” (DRUG GENOMICS, LTD., priority 2018, published 2021):
# How the values were obtained:
# [1] = system: Tet strain having ERG11 gene as a candidate target gene; assay: Determination of 50% inhibitory concentration of doxycycline on Tet strain (turbidity at OD 600); conditions: Nakaseomyces glabratus, 20 h, read-out: IC50 of the Tet strain having ERG11 gene for Dox
# From the text: (§1) Tetracycline transcriptional repression strains (Tet strains), were each prepared by inserting Tet-Off promoter into a site upstream of each of the genes of Candida glabrata, in accordance with the method described in Ueno K, Uno J, Nakayama H, Sasamoto K, Mikami Y, Chibana H. Development of a highly efficient gene targeting system induced by transient repression of YKU80 expression in Candida glabrata. Eukaryot Cell. 2007; 6: 1239-1247.
# SD medium (6.7 g/L yeast nitrogen base, 2% glucose) (100 μL) was added dropwise to a 96-well cell culture plate. To the plate, doxycycline (Dox) serially diluted was added, and then, the Tet strain prepared in the step (1) was inoculated. The strain was cultured at 30° C. for 20 hours and turbidity was measured at CD 600. The concentration at which the turbidity of the Tet strain decreased, by addition of Dox, to about 50% of that in the case where culture was carried out in the absence of Dox was specified as IC50. Herein, for example, IC50 or the Tet strain having ERG11 gene as a candidate target gene for Dox was 1 μM.
# [2] = system: Tet strain having ERG1 gene as a candidate target gene; assay: as above; conditions: Nakaseomyces glabratus, 20 h, read-out: IC50 of the Tet strain having ERG1 gene for Dox
# From the text: as §1
# SD medium (6.7 g/L yeast nitrogen base, 2% glucose) (100 μL) was added dropwise to a 96-well cell culture plate. To the plate, doxycycline (Dox) serially diluted was added and each of the Tet strains prepared in Example 1 (1) was inoculated. The strains were each cultured at 30° C. for 20 hours and turbidity was measured at OD 600. The concentration at which the turbidity of the Tet strain decreased, by addition of Dox, to about 50% of that in the case where culture was carried out in the absence of Dox was specified as IC50. Herein, for example, IC50 of the Tet strain having ERG1 gene as a candidate target gene for Dox was 0.5 LM.
# [3] = system: Tet strain having ERG1 gene as a candidate target gene; assay: Synergy index of Tet strains cultured with Dox and terbinafine (target gene identification); type: cell-based, Candida glabrata; conditions: Example 5, FIG. 6: Dox ½ times of IC50 (0.25 μM) and 12 μM Ter; compared to other Tet strains
# Experimental: The synergy indexes were calculated in substantially the same manner as in the method of Example 1 (4) except that the turbidity of the culture carried out in the presence of Dox and 12 μM Ter, the turbidity of the culture carried out in the presence of Dox of the same concentration, and the turbidity of the culture carried out in the presence of Ter of the same concentration for each Tet strain were used.
Compound,IC50 [1],IC50 [2],Synergy index =(A+B)/2C [3]
C[C@H]1c2cccc(O)c2C(=O)C2=C(O)[C@]3(O)C(=O)C(C(N)=O)=C(O)[C@@H](N(C)C)[C@@H]3[C@@H](O)[C@@H]21 [doxycycline],1000 nM,500 nM,–
CN(C/C=C/C#CC(C)(C)C)Cc1cccc2ccccc12 [terbinafine],–,–,significantly high
